Laboratory results from PMC8073056.
No constants are given. Whether binding was seen depends on the method and setting. Binding seen in cells or lysates may run through a third protein. Some entries that bind do so weakly or less than the wild type.

The chains behind the UniProt entries cited, without tags or fusion partners.
UniProt O95271: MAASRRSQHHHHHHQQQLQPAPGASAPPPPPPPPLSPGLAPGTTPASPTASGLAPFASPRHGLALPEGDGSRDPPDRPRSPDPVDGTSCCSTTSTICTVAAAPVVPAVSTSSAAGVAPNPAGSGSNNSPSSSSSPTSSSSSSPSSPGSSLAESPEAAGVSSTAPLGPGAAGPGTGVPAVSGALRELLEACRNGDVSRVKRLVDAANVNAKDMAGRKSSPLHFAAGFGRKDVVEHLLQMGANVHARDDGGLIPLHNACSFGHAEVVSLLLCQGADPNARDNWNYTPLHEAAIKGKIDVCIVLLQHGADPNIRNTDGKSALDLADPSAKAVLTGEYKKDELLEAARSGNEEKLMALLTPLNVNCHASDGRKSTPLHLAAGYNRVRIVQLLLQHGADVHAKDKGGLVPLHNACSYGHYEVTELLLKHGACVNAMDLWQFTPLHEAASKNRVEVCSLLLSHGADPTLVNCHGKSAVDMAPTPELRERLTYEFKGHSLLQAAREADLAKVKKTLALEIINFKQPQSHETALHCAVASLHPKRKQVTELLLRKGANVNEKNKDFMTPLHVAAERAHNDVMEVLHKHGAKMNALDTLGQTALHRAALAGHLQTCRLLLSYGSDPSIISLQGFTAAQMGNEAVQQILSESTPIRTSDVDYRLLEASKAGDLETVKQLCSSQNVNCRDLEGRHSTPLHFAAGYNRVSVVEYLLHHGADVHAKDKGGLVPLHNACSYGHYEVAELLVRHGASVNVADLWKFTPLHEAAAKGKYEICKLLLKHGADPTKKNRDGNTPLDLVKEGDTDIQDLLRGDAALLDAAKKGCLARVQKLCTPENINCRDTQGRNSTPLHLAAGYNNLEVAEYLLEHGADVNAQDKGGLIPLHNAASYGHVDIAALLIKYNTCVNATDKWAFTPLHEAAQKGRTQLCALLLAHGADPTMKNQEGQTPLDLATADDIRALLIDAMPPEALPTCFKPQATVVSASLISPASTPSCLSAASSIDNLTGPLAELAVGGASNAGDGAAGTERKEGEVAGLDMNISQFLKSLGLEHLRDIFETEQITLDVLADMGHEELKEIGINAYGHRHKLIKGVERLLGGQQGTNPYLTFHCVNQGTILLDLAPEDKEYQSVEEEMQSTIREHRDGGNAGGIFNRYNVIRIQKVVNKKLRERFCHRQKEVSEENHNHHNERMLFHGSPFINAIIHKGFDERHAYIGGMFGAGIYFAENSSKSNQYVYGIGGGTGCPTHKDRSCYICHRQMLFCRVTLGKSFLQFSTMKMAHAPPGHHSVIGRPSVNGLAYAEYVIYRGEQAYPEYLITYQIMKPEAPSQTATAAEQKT

Tests used:
GFP-Arpin G218D (human) = GFP-Arpin G218D (human) (UniProt Q7Z6K5); experiment: co-IP; GFP-Arpin WT or mutants transiently expressed in 293T; GFP-trap agarose beads; 50 mM KCl, 10 mM Hepes pH 7.7, 1 mM MgCl2, 1 mM EGTA, 1% Triton; 2 h at 4 °C; Western blot
GFP-Arpin R213A (human) = GFP-Arpin R213A (human) (UniProt Q7Z6K5); experiment: as above
GFP-Arpin G218A (human) = GFP-Arpin G218A (human) (UniProt Q7Z6K5); experiment: as above
GFP-Arpin R213D (human) = GFP-Arpin R213D (human) (UniProt Q7Z6K5); experiment: as above
GFP-Arpin W224A (human) = GFP-Arpin W224A (human) (UniProt Q7Z6K5); experiment: as above
GFP-Arpin WT (human) = GFP-Arpin WT (human) (UniProt Q7Z6K5); experiment: as above
[1] = target: PC-tagged Arpin G8A (human) (UniProt Q7Z6K5); experiment: co-IP; PC-tagged Arpin WT or mutants transiently expressed in 293T; HPC4 (anti-PC) beads with 1 mM Ca2+ and 2 µM ADP HDP PARG inhibitor; 50 mM KCl, 10 mM Hepes pH 7.7, 1 mM MgCl2, 1 mM EGTA, 1% Triton; 1 h at 4 °C; Western blot
[2] = target: PC-tagged Arpin G189A (human) (UniProt Q7Z6K5); experiment: as above
[3] = target: His-PC-Arpin (Protein C-tagged human Arpin, wild type) (human) (UniProt Q7Z6K5); experiment: as above

**Q.** With “Tankyrase 1 (endogenous, 293 and 293T cells) (from UniProt O95271 1-1327) (enzyme)” as the substance, how does the binding (GFP-Arpin G218D (human)) read?
**A.** no binding

**Q.** What about the binding (GFP-Arpin R213A (human)) of the same substance?
**A.** no binding

**Q.** What about the binding (GFP-Arpin G218A (human)) of the same substance?
**A.** no binding

**Q.** And the binding (GFP-Arpin R213D (human))?
**A.** no binding

**Q.** What about the binding (GFP-Arpin W224A (human)) of the same substance?
**A.** binds

**Q.** What about the binding (GFP-Arpin WT (human)) of the same substance?
**A.** binds

**Q.** And the binding [1]?
**A.** binds

**Q.** And the binding [2]?
**A.** binds

**Q.** And the binding [3]?
**A.** binds
